This is an account of results in article PMC4336329 (PLoS ONE, 2015).

The campaign covered roughly 310,000 compounds. About 2,200 (0.71%) showed an effect of 50% or more. Effects have a minus sign here. The list shows a part of the results.

Sequence of human ether-à-go-go-related gene (hERG) potassium channel (Q12809 whole entry, looked up): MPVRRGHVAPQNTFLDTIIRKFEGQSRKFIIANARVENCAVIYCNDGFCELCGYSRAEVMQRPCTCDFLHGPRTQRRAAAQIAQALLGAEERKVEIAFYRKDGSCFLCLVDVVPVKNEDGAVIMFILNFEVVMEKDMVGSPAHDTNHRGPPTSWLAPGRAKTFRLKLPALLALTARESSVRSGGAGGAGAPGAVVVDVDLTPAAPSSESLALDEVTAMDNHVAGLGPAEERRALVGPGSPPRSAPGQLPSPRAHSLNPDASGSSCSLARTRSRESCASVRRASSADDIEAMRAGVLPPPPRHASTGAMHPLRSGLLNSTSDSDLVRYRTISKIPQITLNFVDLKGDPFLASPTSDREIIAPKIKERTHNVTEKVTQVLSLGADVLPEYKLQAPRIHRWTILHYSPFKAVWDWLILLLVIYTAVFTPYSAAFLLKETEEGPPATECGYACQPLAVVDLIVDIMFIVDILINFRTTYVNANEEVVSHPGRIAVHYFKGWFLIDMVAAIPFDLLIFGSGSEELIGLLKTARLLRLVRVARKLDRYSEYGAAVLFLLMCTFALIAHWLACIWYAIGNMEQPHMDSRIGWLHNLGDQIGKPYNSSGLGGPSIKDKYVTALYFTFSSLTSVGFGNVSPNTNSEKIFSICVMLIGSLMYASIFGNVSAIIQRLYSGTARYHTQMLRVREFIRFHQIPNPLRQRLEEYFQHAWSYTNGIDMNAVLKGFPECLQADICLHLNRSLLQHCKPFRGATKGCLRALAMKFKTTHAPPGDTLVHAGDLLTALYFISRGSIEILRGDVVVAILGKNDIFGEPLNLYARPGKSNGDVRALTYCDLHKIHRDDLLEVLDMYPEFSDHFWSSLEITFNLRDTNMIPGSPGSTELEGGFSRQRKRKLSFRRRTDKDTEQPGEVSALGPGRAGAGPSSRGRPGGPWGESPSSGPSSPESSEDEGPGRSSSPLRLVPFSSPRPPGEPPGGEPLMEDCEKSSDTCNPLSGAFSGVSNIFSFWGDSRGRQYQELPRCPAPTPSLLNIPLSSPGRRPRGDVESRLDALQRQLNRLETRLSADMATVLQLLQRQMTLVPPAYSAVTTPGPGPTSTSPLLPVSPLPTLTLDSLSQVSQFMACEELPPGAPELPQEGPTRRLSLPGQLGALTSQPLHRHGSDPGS

This experiment addresses human ether-à-go-go-related gene (hERG) potassium channel (human, UniProt Q12809). Put plainly: primary screen, population patch clamp on CHO cells stably expressing hERG.
As to `Clc1ccc(CSc2nnc(-c3sccc3-n3cccc3)o2)cc1`, the “hERG current change (%, negative = inhibition) at 1uM” value is reported as 1.6%.

`CC/C(C)=N/Nc1cccc([N+](=O)[O-])c1`: the “hERG current change (%, negative = inhibition) at 1uM” value was determined as 16.9%.

Take `CN(C)c1ccc(C(=S)NC2CCCCC2)cc1`: the “hERG current change (%, negative = inhibition) at 1uM” value is on record as 18.4%.

Turning to `O=c1[nH]c(=O)n(-c2ccccc2)c(O)c1/C=C/C=Nc1ccccc1`, the “hERG current change (%, negative = inhibition) at 1uM” value was 14.5%.

As to `O=C(O)C(Cc1ccccc1)N1CCS(=O)(=O)CC1` (centres unmarked), the “hERG current change (%, negative = inhibition) at 1uM” value was 11.4%.

For the compound `O=C(O)c1ccccc1-n1cnnn1`, the “hERG current change (%, negative = inhibition) at 1uM” value is on record as -5.96%.

Regarding `CC(C)Cc1nnc(NC(=O)CCC(=O)N2CCN(S(=O)(=O)c3ccccc3)CC2)s1`, the “hERG current change (%, negative = inhibition) at 1uM” value turned out to be 13%.

`Cc1nc(-c2coc3cc(C)c(N=O)c(O)c3/c2=N\N)cs1`: the “hERG current change (%, negative = inhibition) at 1uM” value is reported as 5.84%.

For the compound `CC1=CC(C)C(C(=O)O)C(C(=O)N2CCN(C)CC2)C1` (centres unmarked), the “hERG current change (%, negative = inhibition) at 1uM” value is 12.5%.

As to `CCOc1ccc(C(=O)Nc2cccc(C(=O)O)c2)cc1Cl`, the “hERG current change (%, negative = inhibition) at 1uM” value came out at 9.1%.

For `CCOc1c2ccc(C(=O)N[C@H](C)C3CCCCC3)cc2nn1CC`, the “hERG current change (%, negative = inhibition) at 1uM” value is on record as -2.69%.

Take `CC1CCCN(CC(O)CN)C1` (centres unmarked): the “hERG current change (%, negative = inhibition) at 1uM” value is recorded as 16.7%.

Take `O=C1c2cccc(OCC(=O)N3CCCc4ccccc43)c2CCN1Cc1ccc(Br)cc1`: the “hERG current change (%, negative = inhibition) at 1uM” value is recorded as 16.2%.

Turning to `CC(C)(C)c1nnc2sc(SCC(=O)c3ccccc3)nn2c1=O`, the “hERG current change (%, negative = inhibition) at 1uM” value is listed as 2.57%.

Turning to `O=C(CSc1ccc2nnc(CCNC(=O)c3ccccc3)n2n1)Nc1ccccc1`, the “hERG current change (%, negative = inhibition) at 1uM” value is recorded as 6.2%.

Take `COc1ccc(-c2nc(C#N)c(N3CCOCC3)o2)cc1OC`: the “hERG current change (%, negative = inhibition) at 1uM” value was -3.83%.

On to `O=C(c1cc(-c2ccccc2)nn1-c1ccccc1)N1CCN(S(=O)(=O)c2ccc(F)cc2)CC1`, for which the “hERG current change (%, negative = inhibition) at 1uM” value was found to be 10.9%.

Turning to `CC(=O)N(CCC1(C(C)C)CCOC(C)(C)C1)Cc1ccco1` (centres unmarked), the “hERG current change (%, negative = inhibition) at 1uM” value is -5.37%.

Take `COc1ccc(C(=O)N/C(=C\c2ccccc2)C(=O)NC(CC(C)C)C(=O)O)cc1` (centres unmarked): the “hERG current change (%, negative = inhibition) at 1uM” value is listed as 21.4%.

As to `NNC(=O)c1cc(-c2ccco2)[nH]n1`, the “hERG current change (%, negative = inhibition) at 1uM” value was 5.83%.

Consider `COc1ccccc1CC(=O)NCc1ccc2c(c1)OCO2`, for which the “hERG current change (%, negative = inhibition) at 1uM” value came to 17.2%.

As to `CN1CCN(S(=O)(=O)c2ccc([N+](=O)[O-])cc2)CC1`, the “hERG current change (%, negative = inhibition) at 1uM” value came to 2.19%.

Regarding `O=C1CC(N2CCN(Cc3ccccc3)CC2)C(=O)N1CCc1ccccc1` (centres unmarked), the “hERG current change (%, negative = inhibition) at 1uM” value is listed as -16.8%.

As to `Cn1nccc1/C=N\NC(=O)c1ccc(Cl)cc1`, the “hERG current change (%, negative = inhibition) at 1uM” value is 9.89%.

For the compound `CCOC(=O)c1c(C)[nH]c(C=O)c1Cc1cccc(Cl)c1`, the “hERG current change (%, negative = inhibition) at 1uM” value is 12.1%.

`COc1ccc(Cl)cc1NC(=O)CN(C)CC(=O)Nc1ccc(C)cc1Br`: the “hERG current change (%, negative = inhibition) at 1uM” value is 10.2%.

For the compound `CC(=O)c1cccc(N(C(=O)CNC(=O)c2ccco2)C(C(=O)NC2CCCC2)c2ccncc2)c1` (centres unmarked), the “hERG current change (%, negative = inhibition) at 1uM” value turned out to be 6.49%.

`C=CCOC(=O)C1=C[C@H](c2ccc(Br)cc2)[C@@H](CCCO)[C@H](OCC)O1`: the “hERG current change (%, negative = inhibition) at 1uM” value was -10.3%.

`CC(=O)c1cc(C#N)c(NCCCN(C)C)nc1C`: the “hERG current change (%, negative = inhibition) at 1uM” value turned out to be 17.7%.

Regarding `CC(=O)N1CCN(Cc2ccc(Cl)nc2)CC1`, the “hERG current change (%, negative = inhibition) at 1uM” value came to 17.3%.

`Cc1ccccc1NC(=O)c1cc[n+]([O-])cc1`: the “hERG current change (%, negative = inhibition) at 1uM” value is reported as 16.6%.

For the compound `CC(C)C[C@H](N)c1nnc(S(=O)(=O)Cc2cccc(F)c2)o1.Cl`, the “hERG current change (%, negative = inhibition) at 1uM” value is 6.01%.

For `Cc1cc(C)c(S(=O)(=O)Nc2nnc(C)s2)c(C)c1`, the “hERG current change (%, negative = inhibition) at 1uM” value is given as -1.1%.

In the case of `CN1CCN(C(=O)/C(=C/c2cccc([N+](=O)[O-])c2)NC(=O)c2ccccc2)CC1`, the “hERG current change (%, negative = inhibition) at 1uM” value is -46.5%.

`O=C(COC(=O)c1ccccc1Br)NCc1ccccc1`: the “hERG current change (%, negative = inhibition) at 1uM” value is 11.1%.

As for `O=C(CSc1nc2ccccc2o1)N1CCN(C(=O)c2ccco2)CC1`, the “hERG current change (%, negative = inhibition) at 1uM” value is recorded as -10.1%.

Consider `CCCOc1ccc(C2NC(=O)NC(c3ccccc3)=C2C(C)=O)cc1OCC` (centres unmarked), for which the “hERG current change (%, negative = inhibition) at 1uM” value is 2.07%.

Take `C/C(CC(=O)NC1CCCCC1)=N\NC(=O)Cc1ccc(-c2ccccc2)cc1`: the “hERG current change (%, negative = inhibition) at 1uM” value is listed as 3.98%.

Consider `CCCc1cc(=O)[nH]c(Nc2ccc(OC)c(Cl)c2)n1`, for which the “hERG current change (%, negative = inhibition) at 1uM” value worked out at 7.29%.

As to `CSc1ccc(CNC(C)C(O)c2ccccc2)cc1.Cl` (centres unmarked), the “hERG current change (%, negative = inhibition) at 1uM” value is on record as -12.5%.

On to `Cc1ccc(S(=O)(=O)CCC(=O)Nc2ccccc2C)cc1`, for which the “hERG current change (%, negative = inhibition) at 1uM” value was 13.2%.

Consider `CCOc1cc(N2CCOCC2)c(OCC)cc1NC(=O)Cc1cn2ccsc2n1`, for which the “hERG current change (%, negative = inhibition) at 1uM” value is given as 10.1%.

Consider `COc1ccccc1N1CCN(C(=O)c2oc3ccc(F)cc3c2C)CC1`, for which the “hERG current change (%, negative = inhibition) at 1uM” value turned out to be 11.2%.

With `O=c1[nH]c(SCc2ccc(F)cc2)nc2c1cnn2-c1ccc(F)cc1`, the “hERG current change (%, negative = inhibition) at 1uM” value stood at 14.8%.
